In PubChem BioAssay AID1347120 (National Center for Advancing Translational Sciences (NCATS), 2019):
In all, about 390,000 compounds went through this assay and about 930 (0.24%) were called active. The inconclusive results got no clear call from the source; some entries with a clear call stand among them for comparison. Calls follow the shape of the dose curve; as a rule, active = well fitted activation curve with a large enough effect; inconclusive = small, poorly fitted or top-dose-only effect; inactive = no such curve, though single readings can be large or run the other way. Potencies beside an inconclusive call are fits to weak or partial responses and may not hold up.

assay: qHTS for Suppressors of FUS Proteinopathy: Primary screen using FUS-linked yeast assay; also: nearly all actives have a fitted effect of over 55% in size;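 as to growth rescue (activation): plate controls were DMSO vehicle for no effect and reference control for full effect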; conditions: S. cerevisiae FUS-expressing, OD600, 24 h; Potency: growth rescue; growth rescue (activation): at 76.6 µM (top of the series)
Method in brief: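 Quantitative HTS measuring growth restoration of FUS-toxic yeast. Galactose-induced cells (OD 0.005) were exposed 24hr at 30C to compounds at several concentrations, then absorbance at 600 nm was recorded.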
Potency is read from the fitted curve at half-maximal effect; tags tell the direction and shape of the fitted curve.

Compound	Potency	growth rescue (activation)
O=C(NCc1ccc2c(c1)OCO2)c1ccc2c(c1)N(Cc1cccc(Cl)c1)C(=O)c1ccccc1S2	inconclusive: 3.55 µM [activator, full curve]	
O=C(Nc1nccs1)C12CC3CC(C1)CC(C(=O)Nc1nccs1)(C3)C2	inconclusive: 11.2 µM [activator, partial curve, poor fit]	
O=C(C1CCN(c2nnc(-n3cccc3)s2)CC1)N1CCc2ccccc2C1	inconclusive: 35.5 µM [activator, single point]	
CN(CC(=O)Nc1ccccc1Cl)C(=O)c1cccc(S(=O)(=O)N2CCN(c3ccccc3)CC2)c1	inconclusive: 39.8 µM [activator, single point]	
O=C(Nc1cc2c3c(c1)CC(=O)N3CCC2)c1ccc(Br)cc1	inconclusive: 50.1 µM [activator, single point]	
CC(=O)Nc1cc(C(=O)NCc2ccc(C)cc2)ccc1Sc1ccc(C)cc1	inconclusive: 50.1 µM [activator, partial curve, poor fit]	
CCc1ccc(-c2nc(CN3CCCC(C(=O)N4CCN(c5cc(Cl)ccc5C)CC4)C3)c(C)o2)cc1 (stereo not drawn)	inconclusive: 35.5 µM [activator, partial curve, poor fit]	
Cc1ccc(NC(=O)C2CCCN2S(=O)(=O)c2ccc3c(c2)CCCC(=O)N3)cc1C (stereo not drawn)	inactive	
COc1ccc(-c2cccc(NS(=O)(=O)c3cc(C)c(OC)c(C)c3C)c2)nn1	inconclusive: 50.1 µM [activator, single point]	
COc1ccc(-c2ccc3c(N)c(C(=O)c4cccc(OC)c4)sc3n2)cc1	inconclusive: 7.94 µM [activator, full curve, poor fit]	
COc1ccc(NC(=O)C(c2ccc(C)cc2)N(C)C(=O)Cc2cccs2)cc1 (stereo not drawn)	inactive	
Cc1ccc(NC(=O)COc2ccc(N(C)C(=O)C(C)(C)C)cc2)cc1S(=O)(=O)N1CCCCC1	inconclusive: 28.2 µM [activator, single point]	
CCCCC[C@@H](C)N1C[C@H](COCc2ccccc2)Oc2cc(N3CC[C@@H](O)C3)ccc2S1(=O)=O	inconclusive: 39.8 µM [activator, single point]	
O=C1CCC[C@H]2CC3(CC[C@]24CCCN14)OCCO3	inactive	
CCC(C(=O)Nc1ccccc1C(=O)OC)n1nc(C)c2c(C)n(-c3ccc(C)cc3)nc2c1=O (stereo not drawn)	inconclusive: 28.2 µM [activator, single point]	
CCN(CC)C(=O)[C@H]1C[C@H](CC(=O)NC/C=C(\C)CCC=C(C)C)C(=O)N2CCc3c([nH]c4cc(CCC(=O)N(C)C)ccc34)[C@]12C	inconclusive: 35.5 µM [activator, single point]	
Cc1cccc(-c2nn3c(=O)cc(CN4CCN(S(=O)(=O)c5ccc(Cl)cc5)CC4)nc3s2)c1	inconclusive: 20 µM [activator, partial curve, poor fit]	
OC(CNCCC1C=Nc2ccccc21)Cn1c2ccc(Cl)cc2c2cc(Cl)ccc21 (stereo not drawn)	inactive	
O=C(c1ccccc1)c1nc[nH]c1C(=O)Nc1ccccn1	inactive	
COc1cccc(C=O)c1OCCN1C(=O)c2ccccc2C1=O	inactive	
CCOC(=O)[C@]12CCCCC/C=C\1N(CCc1ccc(Cl)cc1)C(=O)[C@H]2CC(=O)NCc1ccc(OC)c(OC)c1	inconclusive: 31.6 µM [activator, single point]	

Compound	Potency	growth rescue (activation)
COc1cc(OC)c(C2Nc3ccccc3-c3nnc(SCc4ccccc4)nc3O2)cc1OC (stereo not drawn)	inactive	
Cc1ccc(-c2nnc(SCC(=O)Nc3ccc(F)cc3F)n2Cc2ccco2)cc1	inactive	
Cc1ccc(S(=O)(=O)N2CCCCC2)cc1NC(=O)c1cncc(Br)c1	inconclusive: 28.2 µM [activator, partial curve, poor fit]	
CCOC(=O)c1c(CN2CCN(C)CC2)oc2ccc(O)cc12	inactive	
COc1cccc(-n2cc(C(=O)NCc3ccccc3OC)c3ccccc3c2=O)c1	inconclusive: 50.1 µM [activator, single point]	
CCCCCCN1C[C@@H](n2cc(-c3ccc(F)cc3)nn2)[C@H](O)C[C@@H]1c1ccc(OC)cc1	inconclusive: 28.2 µM [activator, single point]	
Cc1cc2c3c(c1)C(C)(c1ccccc1)CC(C)(C)N3C(=O)C21C(C#N)=C(N)OC2=C1C(=O)CC(C)(C)C2 (stereo not drawn)	inconclusive: 35.5 µM [activator, partial curve, poor fit]	
COc1ccc(CN(C)C(=O)CNC(=O)c2sc3ccccc3c2Cl)c(OC)c1	inconclusive: 25.1 µM [activator, single point]	
CCN(c1ccccc1)S(=O)(=O)c1cccc(C(=O)OCC(=O)c2c(N)n(C)c(=O)n(C)c2=O)c1	inconclusive: 50.1 µM [activator, single point]	
OC(c1ccccc1)c1nc(-c2ccc3c(c2)OCO3)cs1 (stereo not drawn)	inactive	
O=C(Nc1ccc(N2CCN(C(=O)c3ccco3)CC2)cc1)c1ccc(F)cc1	inactive	
O=C(NCc1ccc(Cl)cc1)C1CCCN(C(=O)c2cnn(-c3ccc(F)cc3)c2-n2cccc2)C1 (stereo not drawn)	inconclusive: 31.6 µM [activator, single point]	
CC(C)(C)c1ccc(/C=N/NC(=S)NCc2ccccc2)cc1	inactive	
Cc1ccc(Cl)c2sc(NC(=O)C3=COCCO3)nc12	inactive	
CCN(CC)S(=O)(=O)c1cc(-c2nnc(Nc3ccc(OC)c(C(N)=O)c3)c3ccccc23)ccc1C	inconclusive: 50.1 µM [activator, single point]	
Cc1c(NC(=O)c2ccc(Cl)cc2)cc(C(C)C)c(O)c1S(=O)(=O)c1ccc(Cl)cc1	inconclusive: 7.94 µM [activator, partial curve, poor fit]	
O=C(COC(=O)c1cccnc1Cl)Nc1ncc(Cl)cc1Cl	inactive	
COc1ccc(-c2c(-c3ccc(C#N)cc3)oc(=O)c3cc(OC)c(OC)cc23)cc1	inconclusive: 50.1 µM [activator, single point]	
Cc1ccc(CNC(=O)CCSCc2ccccc2F)cc1	inactive	
Nc1[nH]nc2nc(-c3ccccc3)[nH]c(=O)c12	inactive	
CCc1cccc(NC(=O)CCc2c(C)nc3c(c2C)c(=O)n(C)c(=O)n3C)c1	inconclusive: 3.16 µM [activator, full curve]	

Compound	Potency	growth rescue (activation)
COc1ccc(N2CCN(C(=O)c3ccc4c(c3)NC(=O)C(CSCc3ccccc3F)N4)CC2)cc1 (stereo not drawn)	inconclusive: 25.1 µM [activator, single point]	
CCN(Cc1nc2ccccc2c(=O)[nH]1)C(=O)COc1ccccc1Cc1ccccc1	inconclusive: 28.2 µM [activator, single point]	
CC(C)(C)C(c1nc2ccccc2[nH]1)n1c(-c2cc(Cl)cc(Cl)c2)nc2ccccc21 (stereo not drawn)	inactive	
COC(=O)[C@]12C[C@H](CC(=O)N3CCC(c4ccccc4)CC3)C(=O)N(Cc3ccc(Cl)cc3Cl)C1=C[C@H](COCc1ccccc1)O[C@@H]2C	inconclusive: 35.5 µM [activator, single point]	
Cc1cc(C)c2oc(C(=O)Nc3sc4c(c3C(=O)NCc3ccco3)CCCC4)cc(=O)c2c1	inactive	
CC(C)(C)n1nnnc1C(c1cc2cc3c(cc2[nH]c1=O)OCCO3)N1CCSCC1 (stereo not drawn)	inconclusive: 5.01 µM [activator, full curve]	
COc1cccc(NC(=O)c2ccnc(N3CCC(C(=O)NCc4cc(OC)ccc4OC)CC3)c2)c1	inconclusive: 14.1 µM [activator, single point]	
Nc1cc(C(=O)OCC(=O)Nc2ccc(N3CCOCC3)cc2)ccc1Cl	inconclusive: 35.5 µM [activator, single point]	
CCCCC1CCC(C(=O)Nc2ccccc2N2CCOCC2)CC1 (stereo not drawn)	inconclusive: 22.4 µM [activator, partial curve, poor fit]	
COc1ccc(-c2csc3ncnc(Sc4nnnn4C)c23)cc1	inactive	
COc1ccc(NC(=O)C2=C(C)Nc3nc(CCCO)nn3C2c2ccc(O)cc2)cc1 (stereo not drawn)	inactive	
CCCCNC(=O)NCC1CCN(Cc2ccc(OC)cc2)CC1	inactive	
COc1ccc(C)cc1NC(=O)CCCNC(=O)Cn1cnc2sc(C)c(C)c2c1=O	inconclusive: 28.2 µM [activator, single point]	
CCC1=Nc2cc(C(=O)NCc3ccco3)ccc2Sc2ccccc21	inactive	
CC(C)c1ccc(S(=O)(=O)c2cnc(SCC(=O)Nc3cccc(C(F)(F)F)c3)nc2N)cc1	inconclusive: 31.6 µM [activator, single point]	
CCc1cccc(CC)c1NS(=O)(=O)c1ccc2c(c1)CCN2C(=O)C1CC1	inactive	
CCOC(=O)CCCNC(=O)OC1CC2CC1[C@H]1CCCCN1[C@H]2C (stereo partly drawn)	inactive	
O=C(NC1CCCC1)C(C1CC1)n1c(-c2ccnc3ccccc23)nc2ccccc21 (stereo not drawn)	inconclusive: 11.2 µM [activator, partial curve, poor fit]	
C=C(C)COc1ccc2c3c(c(=O)oc2c1OCC(=C)C)CCC3		inconclusive: 78.8% [activator]
COC(=O)[C@]12C[C@H](CC(=O)N3CCN(C(=O)C4CC4)CC3)C(=O)N(Cc3ccc(Cl)cc3Cl)C1=C[C@H](COCc1ccccc1)O[C@@H]2C	inconclusive: 28.2 µM [activator, partial curve, poor fit]	
COc1ccc(-c2ccc(CCC(=O)O)n2-c2cc(OC)ccc2OC)cc1	inconclusive: 22.4 µM [activator, partial curve]	
